In all, about 390,000 compounds went through this assay and about 17,000 (4.4%) were called active. Inconclusive means that the source gave no clear call. Such entries were picked first, then a sample of the others. The call rests on the fitted dose curve; in most records, active means well fitted inhibition curve with a large enough effect; inconclusive means small, poorly fitted or top-dose-only effect; inactive means no such curve, though single readings can be large or run the other way. Where the call is inconclusive, the potency comes from a doubtful curve fit.
The compounds below were run against Lysine-specific demethylase 4A (Homo sapiens) (UniProt O75164) (assay: qHTS Assay for Inhibitors of JMJD2A-Tudor Domain). Conditions: AlphaScreen JMJD2A-Tudor / H3K4me3 peptide binding; activity change, negative = inhibition: at 114 µM (top of the series).
UniProt O75164, sequence (O75164 whole entry, looked up, the tested form may be a part): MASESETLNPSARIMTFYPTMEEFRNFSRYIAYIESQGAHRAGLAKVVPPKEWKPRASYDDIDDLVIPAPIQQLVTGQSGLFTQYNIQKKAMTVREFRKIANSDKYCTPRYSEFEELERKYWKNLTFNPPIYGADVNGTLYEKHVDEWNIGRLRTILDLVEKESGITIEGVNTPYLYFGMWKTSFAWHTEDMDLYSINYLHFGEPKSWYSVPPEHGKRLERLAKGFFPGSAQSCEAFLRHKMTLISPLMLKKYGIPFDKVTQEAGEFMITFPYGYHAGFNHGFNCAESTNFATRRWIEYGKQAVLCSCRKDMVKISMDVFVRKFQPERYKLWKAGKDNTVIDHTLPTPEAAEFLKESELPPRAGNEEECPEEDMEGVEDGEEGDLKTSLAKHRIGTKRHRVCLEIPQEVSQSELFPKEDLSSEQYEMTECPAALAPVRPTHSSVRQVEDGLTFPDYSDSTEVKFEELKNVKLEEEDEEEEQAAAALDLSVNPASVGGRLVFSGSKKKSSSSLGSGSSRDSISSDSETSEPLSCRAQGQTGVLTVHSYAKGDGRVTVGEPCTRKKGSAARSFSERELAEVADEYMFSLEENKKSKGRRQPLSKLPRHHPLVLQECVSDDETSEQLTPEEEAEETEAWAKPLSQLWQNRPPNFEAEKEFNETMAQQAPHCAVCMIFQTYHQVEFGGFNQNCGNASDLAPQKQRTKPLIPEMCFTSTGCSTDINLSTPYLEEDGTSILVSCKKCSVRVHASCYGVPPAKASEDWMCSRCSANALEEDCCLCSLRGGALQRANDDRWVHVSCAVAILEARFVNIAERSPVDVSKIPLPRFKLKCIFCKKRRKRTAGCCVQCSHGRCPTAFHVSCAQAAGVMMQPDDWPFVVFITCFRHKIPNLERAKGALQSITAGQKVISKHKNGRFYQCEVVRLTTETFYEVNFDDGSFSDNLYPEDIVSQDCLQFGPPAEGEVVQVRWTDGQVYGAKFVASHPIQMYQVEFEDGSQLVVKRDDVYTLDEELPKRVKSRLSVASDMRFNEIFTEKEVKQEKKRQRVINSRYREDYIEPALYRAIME
With Cc1ccc(NC(=O)N(Cc2ccc3c(c2)OCO3)C2CCN(Cc3ccccc3)CC2)cc1C the Potency was inconclusive: 31.6 µM [inhibitor, full curve].
For O=C(N/N=C/c1c(O)n(Cc2ccc(F)cc2)c(=S)[nH]c1=O)c1ccncc1, the Potency was active: 100 µM.
With COc1ccc(N2C(=O)/C(=C/c3ccco3)C(=O)NC2=S)cc1 the Potency was active: 10 µM.
For Nc1ccc(Sc2ccc(N)cc2)cc1, the Potency was inconclusive: 31.6 µM [inhibitor, partial curve].
For CCOC(=O)c1c(-n2c(C)cc(C=C3C(=O)NC(=S)NC3=O)c2C)sc2c1CCCC2, the Potency was inconclusive: 14.1 µM [inhibitor, full curve].
In the case of c1ccc(CCc2ccc3n2Cc2cnnn2-c2ccccc2-3)cc1, the Potency is reported as inconclusive: 14.1 µM [inhibitor, full curve].
For CCn1c(O)c(C=Nc2ccc(S(N)(=O)=O)cc2)c(=O)[nH]c1=S, the Potency was inconclusive: 79.4 µM [inhibitor, partial curve].
Nc1ccccc1C(=O)OC1CSC1 was tested, and the Potency was inconclusive: 79.4 µM [inhibitor, partial curve].
CC[C@@]1(C(=O)OC)N[C@H](CN(C)C(=O)c2ccc(C(C)(C)C)cc2)[C@@H]2C(=O)N(Cc3ccccc3)C(=O)[C@@H]21 was tested, and the Potency was inconclusive: 70.8 µM [inhibitor, partial curve, poor fit].
With COC(=O)OCC12CCC(O1)C1(C)C(=O)OCC21 (stereo unspecified) the Potency was inconclusive: 31.6 µM [inhibitor, single point].
With Cc1[nH]c2ccccc2c1P(=S)(c1ccccc1)c1ccccc1 the Potency was inconclusive: 79.4 µM [inhibitor, partial curve].
Cc1cc2c(cc(C(=O)N3CCC(C(=O)NC4CCCC4)CC3)n2Cc2c(F)cccc2Cl)o1 was tested, and the Potency was inconclusive: 17.8 µM [inhibitor, partial curve].
For COC(=O)C1=CO[C@@H](C)[C@@H]2CN(CCc3c[nH]c4ccccc34)CC[C@H]12, the Potency was inconclusive: 89.1 µM [inhibitor, partial curve].
With CC(=O)O[C@H]1CC[C@@]2(C)C(=CC(=O)C3C2CC[C@@]2(C)C3C[C@H](OC(C)=O)[C@@H]2OC(C)=O)C1 (stereo partly specified) the “activity change, negative = inhibition” value was inactive: -24.8%.
For COc1ccc2c(c1)c(CCN)c(C)n2Cc1ccccc1, the Potency was inconclusive: 17.8 µM [inhibitor, full curve].
In the case of O=C(c1ccc2nc(-c3ccco3)c(-c3ccco3)nc2c1)N1CCC2(CC1)OCCO2, the Potency is reported as active: 89.1 µM.
For C[C@]12CCC3C(CC[C@H]4C[C@@H](O)CC[C@]34C)[C@H]1CC[C@H]2O (stereo partly specified), the “activity change, negative = inhibition” value was inactive: -13.1%.
In the case of O=c1c2ccccc2nc(/C=C/c2ccco2)n1-c1ccccc1O, the Potency is reported as inconclusive: 56.2 µM [inhibitor, single point].
O=P(O)(O)Cc1ccccc1OP(=O)(c1ccccc1)c1ccccc1 was tested, and the Potency was inconclusive: 89.1 µM [inhibitor, single point].
With COc1ccc(C(C)=O)cc1Cc1c(O)[nH]c(=S)[nH]c1=O the Potency was inconclusive: 35.5 µM [inhibitor, partial curve].
CC(=NCCCN1CCCCC1)c1c(O)n(Cc2ccccc2)c(=O)[nH]c1=O was tested, and the “activity change, negative = inhibition” value was inactive: -17%.
O=[N+]([O-])c1ccc(N2CCNCC2)c(Cl)c1 was tested, and the Potency was inconclusive: 44.7 µM [inhibitor, partial curve].
With COc1ccc(NC(c2ccccc2)P(=O)(Oc2ccccc2)Oc2ccccc2)cc1 (stereo unspecified) the Potency was inconclusive: 56.2 µM [inhibitor, partial curve].
For CC(C)N1CCN(Cc2cccc([N+](=O)[O-])c2)CC1, the Potency was active: 0.891 µM.
With O=C1NC(=S)SC1=Cc1ccc(N(CCCl)CCCl)cc1 the Potency was active: 31.6 µM.
With COC(=O)C1=C(c2ccc(F)cc2OCc2ccccc2)C[C@@H]2CC[C@H]1N2C(=O)NC1CCN(Cc2ccccc2)CC1 the Potency was inconclusive: 56.2 µM [inhibitor, partial curve, poor fit].
Cc1cc(C(=O)NP(=O)(N2CCOCC2)N2CCOCC2)c(C)n1C1CC1 was tested, and the “activity change, negative = inhibition” value was inactive: -21.2%.
For CCN(CC)c1ccc(CNCCc2ccc(F)cc2)cc1, the Potency was inconclusive: 12.6 µM [inhibitor, full curve].
For Clc1ccc(Cn2ccnc2)cn1, the “activity change, negative = inhibition” value was inactive: -23.9%.
O=c1[nH]c(=S)[nH]c(O)c1C(c1ccccn1)c1c(O)[nH]c(=S)[nH]c1=O was tested, and the Potency was inconclusive: 70.8 µM [inhibitor, single point].
For C=CCc1cccc(C=Nc2c[nH]c(=O)[nH]c2=O)c1O, the Potency was active: 39.8 µM.
O=P1(Oc2ccccc2)CC=CC(COC(c2ccccc2)(c2ccccc2)c2ccccc2)O1 (stereo unspecified) was tested, and the “activity change, negative = inhibition” value was inactive: -30.3%.
Brc1ccccc1Cn1c(-c2cncs2)nc2ccccc21 was tested, and the Potency was inconclusive: 10 µM [inhibitor, full curve, poor fit].
With Cc1cc(/C=C2\C(=O)NC(=O)N(c3cccc(Br)c3)C2=O)c(C)n1C the “activity change, negative = inhibition” value was inactive: -11.3%.
In the case of O=[N+]([O-])c1ccc(-c2ccc(C=Nc3cccc4ccccc34)o2)cc1, the Potency is reported as active: 15.8 µM.
With COc1ccc(OC)c(-n2c(O)c(C=Nc3c(C)n(C)n(-c4ccccc4)c3=O)c(=O)[nH]c2=S)c1 the Potency was inconclusive: 39.8 µM [inhibitor, single point].
For CN1CCC(c2c[nH]c3ccc(O)cc23)CC1, the “activity change, negative = inhibition” value was inactive: -15.9%.
Cc1ccc(-n2c(O)c(/C=C3/C(c4ccccc4)=Nc4ccccc43)c(=O)[nH]c2=O)cc1 was tested, and the Potency was inconclusive: 15.8 µM [inhibitor, partial curve].
In the case of COc1ccc2[nH]c3c(c2c1)CCN=C3C, the Potency is reported as active: 35.5 µM.
For CN(C)c1ccc(C(O)P(=O)(OC2CCCCC2)OC2CCCCC2)cc1 (stereo unspecified), the Potency was inconclusive: 35.5 µM [inhibitor, partial curve].
Cc1ccccc1-n1c(C)cc(/C=C2/C(=O)NC(=O)N(Cc3ccco3)C2=O)c1C was tested, and the Potency was active: 28.2 µM.
With CCOc1ccc(N=C2SCCCN2C)cc1 the Potency was inconclusive: 11.2 µM [inhibitor, partial curve].
COc1cccc(NC(=O)c2ccc[n+](C)c2)c1 was tested, and the Potency was inconclusive: 28.2 µM [inhibitor, single point].
For Cc1cc(OCC(=O)N2C[C@H]3C[C@@H](C2)c2cccc(=O)n2C3)c2c(C)c(C)c(=O)oc2c1, the Potency was inconclusive: 39.8 µM [inhibitor, single point].
In the case of CCCCOC(=O)CCN1C(=O)/C(=C2\SC(=S)N(CCC(=O)OCCCC)C2=O)SC1=S, the Potency is reported as inconclusive: 22.4 µM [inhibitor, full curve].
O=[N+]([O-])c1ccc(CNCCc2ccccc2)cc1 was tested, and the Potency was active: 20 µM.
CC(N)Cc1c[nH]c2ccc(OCc3cccs3)cc12 (stereo unspecified) was tested, and the Potency was inconclusive: 56.2 µM [inhibitor, partial curve].
For FC(F)(F)c1ccccc1CN1CCN(Cc2ccccc2)CC1, the Potency was active: 3.98 µM.
For Oc1ccc(/C=N/NP(=S)(c2ccccc2)c2ccccc2)c(O)c1O, the Potency was inconclusive: 79.4 µM [inhibitor, partial curve].
With O=C(N/N=C/c1cccc([N+](=O)[O-])c1)c1cnccn1 the Potency was inconclusive: 3.16 µM [inhibitor, partial curve].
For Clc1ccc(CCNCc2ccncc2)c(Cl)c1, the Potency was active: 31.6 µM.
O=C(N=Nc1c(O)[nH]c(=O)[nH]c1=O)C1COc2cc3ccccc3cc2O1 (stereo unspecified) was tested, and the activity change, negative = inhibition was inactive: -15% [at 11.4 µM].
With Cc1ccc(S(=O)(=O)CC(=O)c2cc(C)c(OC(=O)N(C)C)c(C)c2)cc1 the “activity change, negative = inhibition” value was inactive: -9.72%.
For CN(C)C(=O)Oc1ccc2c(c1)O/C(=C\c1ccc(Cl)cc1)C2=O, the Potency was inconclusive: 12.6 µM [inhibitor, partial curve].
COc1ccccc1N1CCN(Cc2cc(C)c(C)cc2O)CC1 was tested, and the “activity change, negative = inhibition” value was inactive: -21.2%.
For Nc1ccc2cc(Br)ccc2c1, the Potency was inconclusive: 39.8 µM [inhibitor, partial curve, poor fit].
In the case of CN1C(=O)N(C)C(=O)C2(Sc3ccccc3C2=O)C1=O, the Potency is reported as inconclusive: 89.1 µM [inhibitor, single point].
With CN(C)c1ccc(/C=C2/C(=O)NC(=O)N(CCc3ccc(F)cc3)C2=O)cc1 the Potency was active: 28.2 µM.
With O=c1[nH]c(O)c(C=Nc2ccccc2Oc2ccccc2)c(=O)[nH]1 the Potency was inconclusive: 50.1 µM [inhibitor, partial curve].
C[N+]1(C)C2CCC1CC(OC(=O)c1ccccc1)C2 (stereo unspecified) was tested, and the Potency was inconclusive: 39.8 µM [inhibitor, single point].
COC(=O)c1ccc(NC(=O)c2cccn(Cc3ccccc3C)c2=O)cc1 was tested, and the “activity change, negative = inhibition” value was inactive: -14.2%.
With CC1(O)C[C@]2(C)N(O)C3CCCC[C@@H]3N2O1 (stereo partly specified) the “activity change, negative = inhibition” value was inactive: -7.42%.
For CC(C)c1ccc(N=Nc2c(O)[nH]c(=O)[nH]c2=O)cc1, the Potency was inconclusive: 89.1 µM [inhibitor, partial curve].
COc1ccccc1-n1c(-c2ccco2)n[nH]c1=S was tested, and the Potency was active: 22.4 µM.
In the case of COc1ccc(CC(C)NCCc2ccc(OC)c(OC)c2)cc1 (stereo unspecified), the “activity change, negative = inhibition” value is reported as inactive: -69%.
CN(C)c1cccc2c(C#N)ccc(N(C)C)c12 was tested, and the Potency was inconclusive: 50.1 µM [inhibitor, partial curve].
With Cc1o[nH]c(=O)c1C[C@@H](N)C(=O)O the Potency was inconclusive: 3.98 µM [inhibitor, single point].
CN(C)c1cccc(C(=O)Nc2nc3ccc(S(=O)(=O)NC(C)(C)C)cc3s2)c1 was tested, and the Potency was inconclusive: 15.8 µM [inhibitor, full curve, poor fit].
With Cc1c(C(=O)c2cccc3ccccc23)c2cccc3c2n1[C@H](CN1CCOCC1)CO3 the Potency was active: 56.2 µM.
In the case of CC(C)(C)c1ccc(O)c(N=Cc2c(O)ccc3ccccc23)c1, the Potency is reported as inconclusive: 22.4 µM [inhibitor, full curve].
For CN1CCN(c2ccc(/C=C3\C(=O)NC(=S)N(c4cccc(Br)c4)C3=O)o2)CC1, the Potency was inconclusive: 79.4 µM [inhibitor, partial curve, poor fit].

Reference: PubChem BioAssay AID504339 (National Center for Advancing Translational Sciences (NCATS), 2011)
Further: nearly all actives have a fitted effect of over 50% in size.
On the % scale 0 is the no-effect control and ±100 the full control effect; potency means the concentration at half of the fitted maximal effect; tags describe the fitted curve by direction and shape.
